The list shows a part of the results. At the low end of the ranking the order means little. The protein was read in a cell extract, so binding may be indirect.
The sequences below were run against T1, HNF4alpha8 (COS-7 nuclear extract) (UniProt P41235-5) (assay: protein-binding microarray). Conditions: COS-7 nuclear extract on double-stranded Agilent 4x180k PBM; binding buffer, salt, pH and temperature not given; high values mean tight binding; double strand, one strand shown; sequences stand for … in …GCCTAGGGAGATTAGAGTATCGGTCGA.
T1 sequence: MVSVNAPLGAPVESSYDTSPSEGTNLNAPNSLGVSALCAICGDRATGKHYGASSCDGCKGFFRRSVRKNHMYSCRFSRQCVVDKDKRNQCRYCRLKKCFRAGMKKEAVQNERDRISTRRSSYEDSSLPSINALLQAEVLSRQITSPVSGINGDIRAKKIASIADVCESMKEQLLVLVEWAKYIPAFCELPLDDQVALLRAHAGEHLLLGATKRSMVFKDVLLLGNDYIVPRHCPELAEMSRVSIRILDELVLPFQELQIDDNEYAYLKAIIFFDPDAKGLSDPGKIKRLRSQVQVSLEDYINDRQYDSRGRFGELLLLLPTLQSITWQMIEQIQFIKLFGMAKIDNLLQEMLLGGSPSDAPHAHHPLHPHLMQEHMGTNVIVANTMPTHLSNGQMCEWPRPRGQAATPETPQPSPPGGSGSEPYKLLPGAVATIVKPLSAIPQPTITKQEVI

| Sequence | binding signal (log2 normalized intensity) |
| --- | --- |
| GTATTAACATGTAAATATGACCTTTGCTTT | 7.1 |
| AGAGGACAGAAGAAGGAAAAGGCCTGACCT | 1.07 |
| GGGAAAAGATAAGATTATCTCGTCACCTTT | 1.34 |
| CAGGACCAGGTGTAGATAAACTGGAAAGGG | -1.25 |
| TCTCTGGTCGGGGAGGTGTTTATCTTGTGG | 1.93 |
| ATTCCTTCAGGAAGGCCTGTTAAAAACACG | -1.37 |
| TCCTACTGACCTCCGACCCCACGGACTTAA | 4.54 |
| CCTGAGATGTCTGCTTCTTGGGTCAAAGTC | 3.38 |
| AAGAAAAACAAGTGGAGTAGGATTTCTAGT | -1.34 |
| CATGAGAAACATGACACCCATCATGAGTAG | -1.24 |
| TATCTAGGGTCAAAGGGTCAAGTTCAGATC | 6 |
| TATGCTCTCTCTCCACCTGGAGGGACTTTG | 3.06 |
| TGGTCCAAGGTACATGTCTCTGCTCCTAAA | 1.82 |
| CTTGTCCAGGGACTTTGAACACTTCTTTGT | 4.28 |
| TCTATCTCCCTGTGACCTCCAACTATTGCT | 0.866 |
| TAGTTTTGTAACTTAAAGATCATGTTTGAG | 1.62 |
| GTCCAAGTCCAAAGGTCTGAGAACCAAGAG | 4.01 |
| GAACTTTGACTTATTTAGTAGTGGCAAGAG | 3.1 |
| CACAGCACTGTTTATTTTGTGTGATACTCA | 1.68 |
| TTCTGGCAAAGCCAATCTGCTTAAAGGCAA | -1.2 |
| TCGGCTCCATCTAGCAGCCCCAACCCACTG | 3.02 |
| AGTTCAGGCCTCGGCTTCATTAGCAAATAA | -1.39 |
| GCATTTTGCAGACCTTGGTCAAAGTGACAC | 2.31 |
| GGCCTGTGCTGGGGACAAAAGCTGAGTCCC | -1.34 |
| CTTGAGCACTAAAGAGGCTACCAGACCTTG | -1.34 |

| Sequence | binding signal (log2 normalized intensity) |
| --- | --- |
| CACACGGTGTCCAGATTCCAGCCTCCTGCT | -1.4 |
| GGGCATAGCAGATAAGCATTGTGTGTGTTG | 1.88 |
| TCCAGAAGGTCAGGACCACACATTCCATTA | -0.984 |
| TGGGGGAAATTCTCAAAAGTTTTTCCCTTC | 0.231 |
| GGAGTTAGGGAAAAGATAAGGCGTAGTTCA | -0.354 |
| ACCTGACTAAAACCTGCTGCAGGAGAGATG | -1.38 |
| GCAGTGGCGCAATCTCAGCTCAATCTCTGT | -1.39 |
| GGAATGCAGTGACATGATCAAAGTTCATTG | 5.01 |
| TTTCAAAGACAAATATCGACAAGCCAGATC | -1.31 |
| CAGCAAGCATTAATCCCTGAGCCTGGACCT | 2.58 |
| TGTTTCTGGAGAATGCTGTCCTGCCAGTTG | -0.0727 |
| AGAAGCACGTGCAAAGTACAAAGTACAGAG | 4.6 |
| CCAGTGGACTCTCTGTTTGATCAGCTGGTC | 2.29 |
| CTTCCCATAAAACCTAGACAGAAGCTTTCT | -1.34 |
| GGGGAATAAAGAACGCTCACAGAAAGAAGA | -1.37 |
| AGGATTTACTTATACAGCGTCTAAGAAGAT | -1.24 |
| CTGCATTCCTCCTGGCCTCTCTGAGCAGCC | -1.27 |
| CTTTCCACCCTGTTGCACAAGCTGTGTGGC | 0.723 |
| AAACAGGTTCTTCCACGACTCCCCCGCTCA | 3.05 |
| CTTTGACCTTTCCATAGTTCCGAGTTCCCT | 2.05 |
| CAAAGTCCTAGAGTCCCTATTTGCTTGTGA | 1.21 |
| CCAGCTCTTTACTCAGGTCATCAGGACTCT | 0.914 |
| TTCTTAAACGTATGCCACATCACCTCTGAC | -1.14 |
| CCTCGGCTCGGCCCCAGTCCCCCGGACCAG | 3.79 |
| GAATGTGTGATAAGGAACTGTGTAATAAGG | 0.666 |

| Sequence | binding signal (log2 normalized intensity) |
| --- | --- |
| CTTTTGGTGAGTCTTTGCCCCTGGACTTTG | 5.85 |
| AGGGAATTTCTAGGTTTGATCTTTGCCCTA | 7.66 |
| AAGTGGTGATTTCGTTGAAAGCTGCTTCCC | -1.2 |
| GGTTAAGCCACCAAAAAGTAAATAGCCCCA | 3.46 |
| GGTGAGGGTGGGCCTGGGGGGAGACAACTG | -1.35 |
| GATACCTTCCTGAATGCCTAGGTGACAAGG | -0.803 |
| CTCTGTGATAGCCTTTTACCTTGGCAGCCA | -0.147 |
| TTGACCTTCGAACCCTTGCCATTTACATCA | 6.21 |
| TTCTGCGGAAATAATTGATTCAGGTGAGCC | -0.354 |
| CTATGCCCTTTGAAATTCTGGACTTTCAAC | 5.94 |
| ATGAGCTAGAGCTCGTGTCATCTCTGGCTA | -1.39 |
| CAGACTAGTATTGAGTTTGCTCTGCTACTA | -1.06 |
| ACAGGGCAAAGGTGCCAGGTAATTCAAAGC | -0.45 |
| AAGCAGGTTCACATTTTTGTCATCTTCACT | 0.204 |
| TGTCAAAATCTGATCTTTCCTCTAAGTGCC | 0.364 |
| GATGTGTGAAGGACACAGAATGACTTTCAG | -0.193 |
| GAAAGTCTTGATAAGAAACCCAAGATTTGG | -1.03 |
| CATGCTCCCCACCCCCAACTTCCCCAACCC | 6.6 |
| GATCCACGGAGAATGTAGACCTTTACCACC | 2.35 |
| GCAGAGTGTCCCATATCACATTTTAAGGTC | 2.25 |
| TTCTTTTAGTGTGCTCTGGGTCTGTCCTTT | 3.03 |
| GGCCTTTGGACCCAGACTGAATCACACTAC | 4.85 |
| CCCCTACACAGAGGAGCGACCCAGGCAGCC | -1.32 |
| TACTGAGAGGCCAGCTAAAACTGCAGATTG | -1.29 |
| GGGTGGGGTTGGAGTCCAGAGTTCAGGTAG | 3.51 |

| Sequence | binding signal (log2 normalized intensity) |
| --- | --- |
| AACTGTACTTTGGACTGGGGACCTGGTCTG | 4.79 |
| GCATATCTAGAGTCTGACTACTTCTCACCA | -1.19 |
| AAACTCTGAAAGCACTAAGTTACCTCATCT | -1.25 |
| AGTTCAGTCTTTATTGGTACGTTCCAATAT | 1.8 |
| TTGGGTGAGTGTTAGAGCACCCTCTGGAGG | -1.37 |
| AAGTGCATACTCAAAGAATTTAACACCAGA | -1.3 |
| CTTTGACCTTACCAGCCCACTCTTAGCAGA | -1.38 |
| GAGCTGTGATTGCGCCACTGTACTCCTGTC | 0.907 |
| CAGTCCCTGTACACGGTTCTTGACCTGTGA | 4.12 |
| AGCGGCAGCGCCTCCCGGTCACTACAACAA | -1.41 |
| GGCCTGCAAGCTCCTGGTTGGGGCCTCCCT | -1.36 |
| GGGCTTAATCTTTCCTGCCTGCCGGCTCTG | -1.28 |
| TCCCACCGTGTGTGCACTTTAAATTAATCT | 0.44 |
| TGTTTGCACTGAGGAATGGAAGGACCTTGG | 2.07 |
| TTTGCCCTTTGAGCTTCTGTCTTGGACTGC | 3.91 |
| ATATGAAAACAAAGGAAACCAAACATTGAA | -1.31 |
| CAAATAAAGTTTGAGGAGAGTCAAAGGTTA | 4.23 |
| CCACACAAACCCAGTTTGCATTTTCATGGA | 0.254 |
| TTGCAGACTGGTTCTTGGTCAGCTCCTGGG | -1.09 |
| CAAGAAACCTTTCCCTCTCTCCTGGTTTGG | 1.23 |
| AGTTTTTCCCCTTGGTGGATTCCGTGGTAA | 1.43 |
| TGCGCATGTTCCCACGAAACCCTAAACCTG | -1.19 |
| GCAGGCCTGGGGGCAAAGTCAGGTACTGGT | 1.16 |
| TTCCCTCCTGTGAACTCGCGCCCCAACGGA | -1.25 |
| ACCTTTAGCACCGTAAGAGAGTATTTCCCA | -0.964 |

| Sequence | binding signal (log2 normalized intensity) |
| --- | --- |
| CACTTCGCATTTCCAAAAGAAGAATGTGGC | -0.294 |
| GAAGAGTGAGGTCACAGTATTCATTCCCCT | 1.55 |
| TTCTTATCTTTCTCAAGAGCAGAATCTACA | 0.247 |
| TGACGCTTTAAGTAGGCACTATTATCCCCC | 3.62 |
| TGCTCTTATTGATTGCCTTTCATGTACTGT | 2.2 |
| TAATGAATAAGCACGTTAGAGAAAAAGCCC | -1.39 |
| TCCTGCCCCCTGGAGGAGTGAGGGATGTTC | 1.96 |
| GTCAGGACAAGGCTCTGGTGGGGAATGCTA | -1.31 |
| GGAGACCACTGGTGTAAGCTCTGGAGTCCA | 1.64 |
| CCAGGATCAAATACAGAATCAATGCCTGAT | -1.34 |
| GTGGCCCCGAGATAAGGATTCCTGGAATGT | 0.921 |
| CAGCCTTTGGACTTTGAACTGCAACATCAG | 8.89 |
| GGAGAATTTCACAAAGGGCAAAGTCCCCTT | 7 |
| TTACGGGCAGAGCTGGGGTGCCTGATAATG | -1.25 |
| CAGGCACATTCCAGGACCTTTGCTCATGTC | 3.58 |
| ACCAAGGAGGTGCTGACAGGCCCTCTGATA | -1.27 |
| TGTCCCTCCTGACCTTTGGACTTGATAGAG | 9.7 |
| ACAGCCACATGCTAACACACCTGGCTATTC | -1.4 |
| TGTCATGACCTTCGCTCTTGATGGGTTTGC | 3.64 |
| CCGTCTCTCACCAAATCCCTGCCCACATCC | 2.23 |
| GGTGTGAATATTTAAGATTCCAGCTCTCGG | -1.27 |
| GACCCTTGCACTCATACTTGAAGACATTCC | 3.49 |
| TGAAGCTTGCAACAAAGGGGTTTCTAAGAA | -1.19 |
| ATGTTTGGGAGCCTTGCACACTCGCCTGGC | -1.42 |
| CATCTTTATCATGTGGTATTAACATGTAAA | 1.4 |

| Sequence | binding signal (log2 normalized intensity) |
| --- | --- |
| ACTCCACATATTGTAGATAATACTGTGTCA | 0.935 |
| TTCAGTCGGCTCTCAGCGGAACTTTCCTCT | -1.4 |
| TTGGGTGGAGGGGAGGTTATCTTGGGGCTG | -1.15 |
| TTAACAGATGAGGACATTTCAGCAAAGTTC | 0.0075 |
| CAGAGGTCAAGGCTGCAGCGAGCCACTGTA | -1.41 |
| CCCCCATTAGAGGCACACTCTATTATGTAA | 1.59 |
| ATGCCCTTATCTCATACCTTGCATGCACAA | 0.04 |
| AGTTTGAAGCTTAGAGAGAGAAATTGCTTA | -1.35 |
| TTGACTTTTTGTGGGGGCAGATGTTTCTTT | 1.95 |
| TTGAATCCTTATCTGTAGAAGGCAAAGCTT | -1.04 |
| CATGTGGGTCAACAGACAAATGAAAGAGCT | -1.07 |
| GGTTGCCCAGGGAGAGCTGGACTTTCATCT | 5.54 |
| TGCTAACAATGTGATTTATGAAGGGGGGTG | -1.3 |
| GAAGGCCCTGAACTCCCAGCCTCCAAGATG | -1.25 |
| TCCTCTCAAAGTCCACCCGGCCAGCAGATG | 3.12 |
| CTCCTCCCCTTGAGACTTTAATCTCTCCTC | 2.01 |
| TCTCTGTAAACTGGCCAGAAGGTCAGAGAT | 2.36 |
| TACTAGCCATTTCGGCACCTTCTACACAGC | -0.851 |
| TACAGACAGAAGCCAGAGGCAGCAAGGTCA | 0.321 |
| TGCCCTTTGGCCCCCAGAGCCCCGTGTCTC | 5.63 |
